Some of the results follow.
What was measured:
Assay in all cases: glycan array binding signal (z-score within array); higher = stronger binding
Settings in all cases: glycan notation: IUPAC condensed, linker removed
[1] = molecular target: GlcNAc(b1-3)Man
Method in brief: (§1)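 Glycan array data came from 3228 arrays in the Consortium for Functional Glycomics database, and only arrays with an available protein sequence were kept. Glycan names were put into IUPAC-condensed notation, and columns mapping to the same glycan were averaged. The binding signal is a within-array Z-score, averaged across arrays of one protein sequence run at different concentrations or buffers and across linkers. A negative Z-score can be read as non-binding.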

[2] = molecular target: GlcNAc(b1-3)[GlcNAc(b1-4)][GlcNAc(b1-6)]GlcNAc
Method in brief: as §1

[3] = molecular target: GlcNAc(b1-3)[GlcNAc(b1-6)]Gal(b1-4)GlcNAc
Method in brief: as §1

[4] = molecular target: GlcNAc(b1-3)[GlcNAc(b1-6)]GalNAc
Method in brief: as §1

[5] = molecular target: GlcNAc(b1-3)[GlcNAc(b1-6)]GlcNAc(b1-4)GlcNAc
Method in brief: as §1

[6] = molecular target: GlcNAc(b1-4)Gal(b1-4)GlcNAc
Method in brief: as §1

[7] = molecular target: GlcNAc(b1-4)GlcNAc
Method in brief: as §1

[8] = molecular target: GlcNAc(b1-4)GlcNAc(b1-4)GlcNAc
Method in brief: as §1

[9] = molecular target: GlcNAc(b1-4)GlcNAc(b1-4)GlcNAc(b1-4)GlcNAc(b1-4)GlcNAc
Method in brief: as §1

[10] = molecular target: GlcNAc(b1-4)GlcNAc(b1-4)GlcNAc(b1-4)GlcNAc(b1-4)GlcNAc(b1-4)GlcNAc
Method in brief: as §1

[11] = molecular target: GlcNAc(b1-4)[GlcNAc(b1-6)]GalNAc
Method in brief: as §1

[12] = molecular target: GlcNAc(b1-6)Gal(b1-4)GlcNAc
Method in brief: as §1

[13] = molecular target: GlcNAc(b1-6)GalNAc
Method in brief: as §1

[14] = molecular target: GlcNAc3Prop(b1-4)GlcNAc
Method in brief: as §1

[15] = molecular target: GlcNAc6S(b1-3)Gal(b1-4)GlcNAc
Method in brief: as §1

[16] = molecular target: Kdn(a2-3)Gal(b1-3)GalNAc
Method in brief: as §1

[17] = molecular target: Kdn(a2-3)Gal(b1-3)GlcNAc
Method in brief: as §1

[18] = molecular target: Kdn(a2-3)Gal(b1-4)Glc
Method in brief: as §1

[19] = molecular target: Kdn(a2-3)Gal(b1-4)GlcNAc
Method in brief: as §1

[20] = molecular target: Kdn(a2-3)Gal(b1-4)[Fuc(a1-3)]GlcNAc
Method in brief: as §1

[21] = molecular target: Kdn(a2-6)Gal(b1-4)GlcNAc
Method in brief: as §1

[22] = molecular target: Man(a1-2)Man(a1-2)Man(a1-3)Man
Method in brief: as §1

[23] = molecular target: Man(a1-2)Man(a1-2)Man(a1-6)[Man(a1-3)]Man
Method in brief: as §1

[24] = molecular target: Man(a1-2)Man(a1-3)Man
Method in brief: as §1

[25] = molecular target: Man(a1-2)Man(a1-3)[Man(a1-2)Man(a1-6)]Man
Method in brief: as §1

[26] = molecular target: Man(a1-2)Man(a1-3)[Man(a1-2)Man(a1-6)]Man(a1-6)[Man(a1-2)Man(a1-2)Man(a1-3)]Man
Method in brief: as §1

[27] = molecular target: Man(a1-2)Man(a1-3)[Man(a1-2)Man(a1-6)]Man(a1-6)[Man(a1-2)Man(a1-2)Man(a1-3)]Man(b1-4)GlcNAc(b1-4)GlcNAc
Method in brief: as §1

[28] = molecular target: Man(a1-2)Man(a1-3)[Man(a1-2)Man(a1-6)]Man(a1-6)[Man(a1-3)[Man(a1-6)]Man(a1-6)]Man(b1-4)GlcNAc(b1-4)GlcNAc
Method in brief: as §1

[29] = molecular target: Man(a1-2)Man(a1-3)[Man(a1-6)]Man(a1-6)[Man(a1-2)Man(a1-3)]Man(b1-4)GlcNAc(b1-4)GlcNAc
Method in brief: as §1

[30] = molecular target: Man(a1-2)Man(a1-6)[Man(a1-3)]Man(a1-6)[Man(a1-2)Man(a1-2)Man(a1-3)]Man
Method in brief: as §1

[31] = molecular target: Man(a1-2)Man(a1-6)[Man(a1-3)]Man(a1-6)[Man(a1-2)Man(a1-2)Man(a1-3)]Man(b1-4)GlcNAc(b1-4)GlcNAc
Method in brief: as §1

[32] = molecular target: Man(a1-3)[Man(a1-6)]Man
Method in brief: as §1

[33] = molecular target: Man(a1-3)[Man(a1-6)]Man(a1-6)[Man(a1-2)Man(a1-3)]Man(b1-4)GlcNAc(b1-4)GlcNAc
Method in brief: as §1

[34] = molecular target: Man(a1-3)[Man(a1-6)]Man(a1-6)[Man(a1-3)]Man
Method in brief: as §1

[35] = molecular target: Man(a1-3)[Man(a1-6)]Man(a1-6)[Man(a1-3)]Man(b1-4)GlcNAc(b1-4)GlcNAc
Method in brief: as §1

[36] = molecular target: Man(a1-3)[Man(a1-6)]Man(b1-4)GlcNAc(b1-4)GlcNAc
Method in brief: as §1

[37] = molecular target: Man(a1-6)Man
Method in brief: as §1

[38] = molecular target: Man(b1-4)GlcNAc
Method in brief: as §1

[39] = molecular target: Neu5Ac(a2-3)Gal
Method in brief: as §1

[40] = molecular target: Neu5Ac(a2-3)Gal(b1-3)GalNAc
Method in brief: as §1

[41] = molecular target: Neu5Ac(a2-3)Gal(b1-3)GalNAc(b1-3)Gal(a1-4)Gal(b1-4)Glc
Method in brief: as §1

[42] = molecular target: Neu5Ac(a2-3)Gal(b1-3)GalNAc(b1-3)Gal(b1-4)GlcNAc
Method in brief: as §1

[43] = molecular target: Neu5Ac(a2-3)Gal(b1-3)GalNAc(b1-4)[Neu5Ac(a2-3)]Gal(b1-4)Glc
Method in brief: as §1

[44] = molecular target: Neu5Ac(a2-3)Gal(b1-3)GalNAc6S
Method in brief: as §1

[45] = molecular target: Neu5Ac(a2-3)Gal(b1-3)GlcNAc
Method in brief: as §1

[46] = molecular target: Neu5Ac(a2-3)Gal(b1-3)GlcNAc(b1-3)Gal(b1-3)GlcNAc
Method in brief: as §1

[47] = molecular target: Neu5Ac(a2-3)Gal(b1-3)GlcNAc6S
Method in brief: as §1

[48] = molecular target: Neu5Ac(a2-3)Gal(b1-3)[Fuc(a1-4)]GlcNAc
Method in brief: as §1

[49] = molecular target: Neu5Ac(a2-3)Gal(b1-3)[Fuc(a1-4)]GlcNAc(b1-3)Gal(b1-3)[Fuc(a1-4)]GlcNAc
Method in brief: as §1

[50] = molecular target: Neu5Ac(a2-3)Gal(b1-3)[Fuc(a1-4)]GlcNAc(b1-3)Gal(b1-4)[Fuc(a1-3)]GlcNAc
Method in brief: as §1

[51] = molecular target: Neu5Ac(a2-3)Gal(b1-3)[Neu5Ac(a2-3)Gal(b1-4)]GlcNAc
Method in brief: as §1

[52] = molecular target: Neu5Ac(a2-3)Gal(b1-3)[Neu5Ac(a2-6)]GalNAc
Method in brief: as §1

[53] = molecular target: Neu5Ac(a2-3)Gal(b1-4)Glc
Method in brief: as §1

[54] = molecular target: Neu5Ac(a2-3)Gal(b1-4)GlcNAc
Method in brief: as §1

[55] = molecular target: Neu5Ac(a2-3)Gal(b1-4)GlcNAc(b1-2)Man(a1-3)[GlcNAc(b1-2)Man(b1-4)GlcNAc(b1-2)Man(a1-6)]Man(b1-4)GlcNAc(b1-4)GlcNAc
Method in brief: as §1

[56] = molecular target: Neu5Ac(a2-3)Gal(b1-4)GlcNAc(b1-2)Man(a1-3)[Neu5Ac(a2-6)Gal(b1-4)GlcNAc(b1-2)Man(a1-6)]Man(b1-4)GlcNAc(b1-4)GlcNAc
Method in brief: as §1

[57] = molecular target: Neu5Ac(a2-3)Gal(b1-4)GlcNAc(b1-3)Gal(b1-3)GlcNAc
Method in brief: as §1

[58] = molecular target: Neu5Ac(a2-3)Gal(b1-4)GlcNAc(b1-3)Gal(b1-4)GlcNAc
Method in brief: as §1

[59] = molecular target: Neu5Ac(a2-3)Gal(b1-4)GlcNAc(b1-3)Gal(b1-4)GlcNAc(b1-3)Gal(b1-4)GlcNAc
Method in brief: as §1

[60] = molecular target: Neu5Ac(a2-3)Gal(b1-4)GlcNAc(b1-3)Gal(b1-4)[Fuc(a1-3)]GlcNAc
Method in brief: as §1

[61] = molecular target: Neu5Ac(a2-3)Gal(b1-4)GlcNAc(b1-3)GalNAc
Method in brief: as §1

B1: MVL (Microcystis viridis), Q9RHG4 (protein)
chain: MASYKVNIPAGPLWSNAEAQQVGPKIAAAHQGNFTGQWTTVVESAMSVVEVELQVENTGIHEFKTDVLAGPLWSNDEAQKLGPQIAASYGAEFTGQWRTIVEGVMSVIQIKYTF
[1]
  glycan array binding signal (z-score): -0.23
[2]
  glycan array binding signal (z-score): -0.233
[3]
  glycan array binding signal (z-score): -0.231
[4]
  glycan array binding signal (z-score): -0.23
[5]
  glycan array binding signal (z-score): -0.244
[6]
  glycan array binding signal (z-score): -0.225
[7]
  glycan array binding signal (z-score): 0.119
[8]
  glycan array binding signal (z-score): 1.3
[9]
  glycan array binding signal (z-score): 0.051
[10]
  glycan array binding signal (z-score): -0.006
[11]
  glycan array binding signal (z-score): -0.229
[12]
  glycan array binding signal (z-score): -0.21
[13]
  glycan array binding signal (z-score): -0.236
[14]
  glycan array binding signal (z-score): -0.238
[15]
  glycan array binding signal (z-score): -0.119
[16]
  glycan array binding signal (z-score): 0.09
[17]
  glycan array binding signal (z-score): -0.24
[18]
  glycan array binding signal (z-score): -0.223
[19]
  glycan array binding signal (z-score): -0.232
[20]
  glycan array binding signal (z-score): -0.121
[21]
  glycan array binding signal (z-score): -0.23
[22]
  glycan array binding signal (z-score): 0.373
[23]
  glycan array binding signal (z-score): -0.183
[24]
  glycan array binding signal (z-score): -0.246
[25]
  glycan array binding signal (z-score): -0.231
[26]
  glycan array binding signal (z-score): 7.38
[27]
  glycan array binding signal (z-score): 1.22
[28]
  glycan array binding signal (z-score): 5.26
[29]
  glycan array binding signal (z-score): 2.01
[30]
  glycan array binding signal (z-score): 1.31
[31]
  glycan array binding signal (z-score): 6.83
[32]
  glycan array binding signal (z-score): -0.232
[33]
  glycan array binding signal (z-score): 2.68
[34]
  glycan array binding signal (z-score): -0.241
[35]
  glycan array binding signal (z-score): 2.72
[36]
  glycan array binding signal (z-score): 1.59
[37]
  glycan array binding signal (z-score): -0.234
[38]
  glycan array binding signal (z-score): -0.244
[39]
  glycan array binding signal (z-score): -0.225
[40]
  glycan array binding signal (z-score): -0.215
[41]
  glycan array binding signal (z-score): -0.228
[42]
  glycan array binding signal (z-score): -0.238
[43]
  glycan array binding signal (z-score): -0.242
[44]
  glycan array binding signal (z-score): -0.238
[45]
  glycan array binding signal (z-score): -0.24
[46]
  glycan array binding signal (z-score): -0.241
[47]
  glycan array binding signal (z-score): -0.234
[48]
  glycan array binding signal (z-score): -0.24
[49]
  glycan array binding signal (z-score): -0.088
[50]
  glycan array binding signal (z-score): -0.175
[51]
  glycan array binding signal (z-score): -0.233
[52]
  glycan array binding signal (z-score): -0.195
[53]
  glycan array binding signal (z-score): -0.232
[54]
  glycan array binding signal (z-score): -0.233
[55]
  glycan array binding signal (z-score): 0.586
[56]
  glycan array binding signal (z-score): 0.954
[57]
  glycan array binding signal (z-score): -0.24
[58]
  glycan array binding signal (z-score): -0.229
[59]
  glycan array binding signal (z-score): -0.241
[60]
  glycan array binding signal (z-score): -0.239
[61]
  glycan array binding signal (z-score): -0.238
